Data published in paper PMC4336329 (PLoS ONE, 2015).
Screen size: about 310,000 compounds; about 2,200 (0.71%) showed an effect of 50% or more. Effects have a minus sign here. Some of the results follow.

Target: human ether-à-go-go-related gene (hERG) potassium channel (human, UniProt Q12809)
Experiment: primary screen, population patch clamp on CHO cells stably expressing hERG

Sequence of human ether-à-go-go-related gene (hERG) potassium channel (Q12809 whole entry, looked up): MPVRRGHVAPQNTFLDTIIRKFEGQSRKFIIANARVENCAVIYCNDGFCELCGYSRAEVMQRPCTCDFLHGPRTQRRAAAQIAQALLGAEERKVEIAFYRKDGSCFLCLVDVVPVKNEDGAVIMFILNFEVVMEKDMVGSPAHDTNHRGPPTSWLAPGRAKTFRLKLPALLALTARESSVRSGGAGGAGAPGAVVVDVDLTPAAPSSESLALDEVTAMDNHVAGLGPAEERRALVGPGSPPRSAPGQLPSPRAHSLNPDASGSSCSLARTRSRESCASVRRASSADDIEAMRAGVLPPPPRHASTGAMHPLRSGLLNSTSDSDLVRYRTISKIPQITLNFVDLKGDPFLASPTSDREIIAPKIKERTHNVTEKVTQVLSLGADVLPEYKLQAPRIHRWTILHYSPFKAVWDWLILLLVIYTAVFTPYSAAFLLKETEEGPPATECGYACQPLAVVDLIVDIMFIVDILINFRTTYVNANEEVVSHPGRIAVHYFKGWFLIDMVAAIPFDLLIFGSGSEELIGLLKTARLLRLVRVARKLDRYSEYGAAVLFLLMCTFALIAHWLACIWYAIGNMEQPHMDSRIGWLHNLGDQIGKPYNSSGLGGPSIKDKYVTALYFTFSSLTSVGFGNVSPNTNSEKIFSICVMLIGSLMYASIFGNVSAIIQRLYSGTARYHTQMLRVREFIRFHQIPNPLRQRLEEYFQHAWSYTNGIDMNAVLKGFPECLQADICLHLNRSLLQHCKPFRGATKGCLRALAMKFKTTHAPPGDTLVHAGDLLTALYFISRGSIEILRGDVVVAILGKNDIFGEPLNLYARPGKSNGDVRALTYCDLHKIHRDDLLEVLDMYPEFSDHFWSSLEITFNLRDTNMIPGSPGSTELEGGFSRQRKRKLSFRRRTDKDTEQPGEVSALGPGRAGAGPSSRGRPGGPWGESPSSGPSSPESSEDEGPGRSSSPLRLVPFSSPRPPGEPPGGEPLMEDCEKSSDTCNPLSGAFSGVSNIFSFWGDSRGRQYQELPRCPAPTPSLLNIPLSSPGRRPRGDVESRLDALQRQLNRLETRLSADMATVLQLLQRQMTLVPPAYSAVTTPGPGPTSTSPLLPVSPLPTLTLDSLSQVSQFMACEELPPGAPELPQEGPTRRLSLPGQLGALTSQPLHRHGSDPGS

Row | SMILES | hERG current change (%, negative = inhibition) at 1uM
1 | CCC(=O)Oc1ccc(-c2cnc3ccccc3n2)cc1 | 14.2%
2 | Cc1cc(Cl)ccc1NC(=S)N(CCCN1CCOCC1)Cc1cccs1 | 3.91%
3 | CCN(CC)C(=O)c1c(-c2ccccc2)oc2ccc(O)cc12 | 17.1%
4 | O=C1C2C3C=CC([C@@H]2C(=O)N1C1CCCCC1)[C@H]1C(=O)N(C2CCCCC2)C(=O)C31 (some centres unmarked) | 1.92%
5 | CCn1ncc(-c2ccnc3cc(C(=O)O)nn23)c1C | 14.8%
6 | Cc1[nH]c2ccc(-c3n[nH]c(=S)n3-c3ccccc3)cc2c1C | 7%
7 | COc1ccc(C(=O)NC(=S)Nc2ccc3c4c(cccc24)CC3)cc1OC | 20.9%
8 | CCCCOc1ccc(C(=O)NCCc2ccccc2)cc1 | 12.6%
9 | COc1cc(S(=O)(=O)NCC2CCCO2)ccc1Br (centres unmarked) | 2.81%
10 | N#CCCCSc1nnc(Cc2ccc3c(c2)OCO3)o1 | 15.9%
11 | Cc1cc(NC(=O)Cn2nc(-c3ccccc3F)ccc2=O)ccc1-n1cnnn1 | 7.13%
12 | CCC(c1nnnn1CCOC)N1CCN(Cc2ccccc2)CC1.Cl (centres unmarked) | 7.29%
13 | Cc1ccc(C(=O)NC(C)(COc2nonc2C)COc2nonc2C)cc1 | -1.74%
14 | COc1ccc(N2C(=S)NC3c4cc(Cl)ccc4OC2(C)C3C(=O)N(C)C)cc1 (centres unmarked) | 17.5%
15 | CC1CC(CN)CC(CO)C1 (centres unmarked) | 17.4%
16 | Cc1nc(SCC(=O)Nc2nc3ccccc3s2)n[nH]1 | 8.45%
17 | CN(C)CCCN(C(=O)c1ccc(S(=O)(=O)N2CCCCCC2)cc1)c1nc2ccc(F)cc2s1.Cl | 9.62%
18 | CC1CC(C)CN(S(=O)(=O)c2ccc(C(=O)NCc3ccc4c(c3)OCO4)cc2)C1 (centres unmarked) | 16.7%
19 | O=C(CSCc1ccc(Br)cc1)N=Nc1c(O)[nH]c2ccccc12 | 13.7%
20 | CCOc1ccc(/C=C2\SC(=S)N(CCC(=O)N(CCO)c3ccccc3)C2=O)cc1 | 12.5%
21 | O=C(O)COc1ccc2c3c(c(=O)oc2c1)CCC3 | 10.8%
22 | CCOC(=O)CSc1nc(C)c2ccccc2n1 | 17.2%
23 | CCC(=O)N1CCN(c2ccc(Cl)cc2NC(=O)Cc2ccc(Cl)cc2)CC1 | 1.41%

Row | SMILES | hERG current change (%, negative = inhibition) at 1uM
24 | Cc1cc(Br)ccc1NC(=O)CN(C)C(=O)CN1C(=O)NC(C)(C2CC2)C1=O (centres unmarked) | 8.88%
25 | Cc1ccccc1N=C(N)Nc1ccccc1C | 11.2%
26 | CCCOC(=O)CSc1nc(N)c(C#N)c(-c2ccco2)c1C#N | 12%
27 | Cc1c(C(=O)N(Cc2nnc(-c3ccccc3Cl)o2)C2CC2)oc2ccccc12 | 0.524%
28 | CCOC(=O)N1CCN(CC(=O)c2c(C)[nH]c3ccccc23)CC1 | 2.68%
29 | COc1ccccc1N/C(N)=N/c1nc(C(F)(F)F)cc(=O)[nH]1 | 13%
30 | Cc1ccc(NC(=O)N2CCN(S(=O)(=O)c3ccccc3)CC2)cc1 | 6.95%
31 | Cc1cccc(CN2CCC(C(=O)Nc3cccc(-c4cccc(F)c4)c3)CC2)n1 | -66.1%
32 | CN(Cc1ccccc1)Cc1c[nH]c2ccccc12 | 3.28%
33 | CCCc1cc(=O)oc2cc(OCC(=O)NCCc3ccc(S(N)(=O)=O)cc3)ccc12 | 8.8%
34 | CC(C)(C)n1c(=O)[nH]c2c(c1=O)CCC2 | 4.09%
35 | Nc1ccc(O)c2c1C(=O)c1ccccc1C2=O | 11.5%
36 | Cn1c(SCC(=O)N/N=C/C=C\c2ccccc2[N+](=O)[O-])nc2ccccc21 | 4.09%
37 | CC(C)n1nc(C(=O)Oc2cccc(Cl)c2Cl)c2ccccc2c1=O | 3.41%
38 | CCOC(=O)Cc1c(C)nc2c(-c3ccccc3)c[nH]n2c1=O | 14.1%
39 | COc1ccc(S(=O)(=O)NCCc2c(C)nn(C)c2Oc2ccccc2)cc1 | 11.8%
40 | C/C=N/NC(=O)CCNC(=O)c1ccccc1 | 13.4%
41 | CCCN(C(=O)c1ccccc1Cc1ccccc1)C1CCS(=O)(=O)C1 (centres unmarked) | 5.7%
42 | CC(C)CCSc1ncnc2c1oc1nc3c(cc12)COC(C)(C)C3 | 4.07%
43 | Nc1cccnc1S(=O)(=O)c1cccc(C(F)(F)F)c1 | 17.2%
44 | Cc1nnc(SCC(=O)NC2CCCCC2)n1C1CCCCC1 | 10.8%
45 | Cc1[nH]c2ccc(C(=O)NC3CCC(C)CC3)cc2c1C (centres unmarked) | 3.54%
46 | Cn1ccc(C(=O)NC(=S)Nc2ccc([N+](=O)[O-])cc2O)n1 | 5.28%

Row | SMILES | hERG current change (%, negative = inhibition) at 1uM
47 | Cc1ccc(S(=O)(=O)NC2=NCN(Cc3cccnc3)CN2)cc1 | 19.2%
48 | Cc1ccc[n+](-c2[nH]c(=O)sc2/C=N/N=C(\[O-])c2cccnc2)c1 | 9.13%
49 | CCOc1ccccc1-n1c(SCC(=O)Nc2ccccc2C(=O)O)nc2ccccc2c1=O | 11.8%
50 | COC(=O)c1ccc(NC(=O)CCS(=O)(=O)c2ccc(C)cc2)cc1 | 13.7%
51 | CC(C)Sc1nc2c(c(=O)n(C)c(=O)n2C)n1C | 15.2%
52 | CCNc1nc(NCC)n2c(SCC(=O)Nc3ccccc3Cl)nnc2n1 | 12%
53 | O=C(CN1C(=O)c2ccccc2S1(=O)=O)NCCSCc1c(F)cccc1Cl | 7.61%
54 | CCOc1ncccc1C(=O)OCc1nnc(-c2ccccc2)o1 | 6.84%
55 | CCOC(=O)c1cc(C#N)c(N2CCOCC2)nc1-c1ccccc1 | -4.3%
56 | Cc1cccc(C)c1OCC(=O)N=Nc1c(O)[nH]c2ccc(Br)cc12 | 3.68%
57 | Cc1[nH]n(-c2ccc([N+](=O)[O-])cc2)c(=O)c1C=NCCN1CCN(C(=O)c2ccccc2F)CC1 | -34.2%
58 | Cc1ccc(NS(=O)(=O)c2cccc(C(=O)O)c2)cc1S(=O)(=O)N1CCOCC1 | 8.27%
59 | CC1CCCN(S(=O)(=O)c2ccc(NC(=O)c3cccc(-n4cnnn4)c3)cc2)C1 (centres unmarked) | -0.63%
60 | CCc1ccc2oc(C(=O)NCc3ccncc3)c(C)c2c1 | -1.42%
61 | CC(C)(C)c1ccc(C(=O)Nc2ccccc2Cl)cc1 | 17.7%
62 | COc1ccc(-c2c(C(C)=O)c(C)nc3sc4c(=O)n(-c5ccc(C)cc5)nnc4c23)cc1 | 10.6%
63 | Cc1ccc2c(c1)N(CC(=O)OCC(=O)NCc1ccccc1)C(=O)CO2 | 6.94%
64 | CCOC(=O)C1=C(Nc2ccc(OC)cc2)OCC1=O | 12.5%
65 | O=C(Cc1cccs1)NC1(C(=O)NC2CCCC2)CCCCC1 | -9.97%
66 | CN(C)CCn1c2c(c(SCC(=O)NCc3ccccc3)nc1=O)CCC2 | 4.19%
67 | Cc1nc2cc(NC(=O)N3c4ccccc4CC3C)ccc2n1C (centres unmarked) | 5.76%
68 | CS(=O)(=O)N1CCN(C(=O)c2c(F)cccc2F)CC1 | 3.57%
69 | CC1CCN(C(=O)/C(=C/c2ccccc2Cl)c2ccccc2)CC1 | 2.81%

Row | SMILES | hERG current change (%, negative = inhibition) at 1uM
70 | Cc1c(Cc2ccc3c(c2)OCO3)sc(NC(=O)c2ccc3ccccc3c2)c1C(N)=O | -3.82%
71 | COc1ccc(C)cc1NC(=O)CCN1CCN(c2ccccc2F)CC1.Cl | 3.59%
72 | O=C(Nc1ccccc1)Nc1scc2c1c(=O)oc1ccccc12 | 1.74%
73 | N/C(=N\OC(=O)c1ccc(OCC(F)(F)F)nc1)c1ccc(Cl)cc1 | 15.2%
74 | CN(C)S(=O)(=O)NCC1CCCN(Cc2cc3ccccc3s2)C1 (centres unmarked) | 7.45%
75 | COc1ccccc1CNC(=O)CCC(=O)Nc1nnc(C(C)C)s1 | 6.47%
76 | Cc1nc(-c2ccccc2)sc1-c1nc(-c2ccccc2)ncc1S(=O)(=O)c1ccccc1 | 5.21%
77 | COc1cc(C(=O)Nc2ccc(N(C)C)cc2)cc(OC)c1OC | 16.8%
78 | N#CC(c1ccccn1)(c1ncc(C(F)(F)F)cc1Cl)N1CCOCC1 (centres unmarked) | 9.65%
79 | CN(C)c1ccc2c3c(cccc13)C(=O)N(c1ccccc1)C2=O | 13.8%
80 | CC(=O)Nc1cccc(C(=O)/C=C/c2ccc(/C=C/C(=O)c3cccc(NC(C)=O)c3)cc2)c1 | -0.717%
81 | N#CCc1ccccc1C(=O)OCC(=O)N(Cc1ccccc1)Cc1ccccc1 | 2.5%
82 | CC(=O)Oc1ccc([N+](=O)[O-])cc1N1C(=O)c2ccccc2C1=O | 6.82%
83 | COc1cccc(C(=O)O/N=C(\N)Cc2ccc(Cl)cc2)c1 | 2.67%
84 | COc1ccc(S(=O)(=O)NCc2cccnc2)cc1Br | 11.1%
85 | N/C(=N\OC(=O)c1ccccc1Cl)c1ccccn1 | 14.1%
86 | O=C(COc1ncnc2ccccc12)NC1CCS(=O)(=O)C1 (centres unmarked) | 13%
87 | CC(C)CCSc1cc(NCCO)c([N+](=O)[O-])c2nonc12 | 7.95%
88 | C=CCN(C(=O)CNC(=O)c1ccco1)C(C(=O)NC1CCCC1)c1cccs1 (centres unmarked) | 11.2%
89 | CCn1cc(C(=O)N2CCN(c3ccccn3)CC2)c(=O)c2cc(S(=O)(=O)N(C)C3CCCCC3)ccc21 | -8.11%
